Patent EP4578463A1, “ENDO-180 TARGETED ANTIBODY-DRUG CONJUGATES” (Oncomatryx Biopharma, S.L., priority 2023, dated 2025)

Tests used:
[1] = test system: parental HEK293; test: Cell viability assay on parental HEK293 cells; assay type: cell-based; conditions: no IC50 reached up to highest concentration
Method: The different anti-Endo180 antibodies (OMTX007-G7V, OMTX707, OMTX807) were analyzed via cell viability assay using the HEK293-Endo180 and HEK293 cell lines. […] No cell killing was detected with the unconjugated OMTX007 antibody and no IC50 values were reached up to 100nM for OMTX807 and OMTX707 in parental HEK293, showing that their activity was Endo180-dependent (see Table 5 below). (Figure 12). Table 5: Summary of OMTX007-G7V, OMTX707 and OMTX807 activity using cell viability analysis on Endo180 versus parental HEK293 cells. n.d.: not determined; mean ± SD: n=2.

[2] = test system: IC9LC11 non-small cell lung cancer patient-derived xenograft; test: Antitumor activity in IC9LC11 non-small cell lung cancer patient-derived xenograft model; assay type: in vivo, immunodeficient female mice; conditions: control group end day, D28
[3] = Tolerability (body weight, clinical observations) in IC9LC11 xenograft study; assay type: in vivo, immunodeficient female mice; conditions: IC9LC11 xenograft mice
[4] = test system: SA4033 leiomyosarcoma patient-derived xenograft; test: Antitumor activity in subcutaneous SA4033 leiomyosarcoma patient-derived xenograft model; assay type: in vivo, NOD/SCID immunodeficient female mice
Method: (§1) The antitumor activity of OMTX707 was evaluated in a subcutaneous SA4033 leiomyosarcoma patient-derived xenograft model developed in NOD/SCID immunodeficient female mice.
(§2) OMTX707 was administered intravenously at 10 and 30mg/kg once per week for 4 weeks.

[5] = Tolerability (body weight, clinical observations) in SA4033 xenograft study; assay type: in vivo, NOD/SCID immunodeficient female mice; conditions: 10 and 30 mg/kg; SA4033 xenograft mice
Method: as §1, §2

| Molecule | IC50 [1] | TGI ([2]; 10 mg/kg twice per week for 4 weeks) | TGI ([2]; 30 mg/kg twice per week for 4 weeks) | tolerability based on body weight data and clinical observations [3] | anti-tumor efficacy compared to the vehicle control group ([4]; 10 mg/kg intravenously once a week) | TGI ([4]; 10 mg/kg once a week, day 48) | anti-tumor efficacy compared to the vehicle control group ([4]; 30 mg/kg intravenously once a week, p=0.114) | TGI ([4]; 30 mg/kg once a week, day 42) | TGI ([4]; 30 mg/kg once a week, day 48) | tolerability based on body weight data and clinical observations [5] |
| --- | --- | --- | --- | --- | --- | --- | --- | --- | --- | --- |
| OMTX807 (conjugate) heavy: EVQLVESGGGLVKPGGSLRLSCAASGFTFSSYSMNWVRQAPGKGLEWVANIKPDGSERHSVDSVKGRFTISRDNSKNSLYLQMNSLRAEDTAVYYCARPGAGRLDYWGQGTLVTVSS[omitted - human IgG1 constant region] light: SSELTQDPAVSVALGQTVRITCQGDSLRSYYASWYQQKPGQAPVLVVYGKNNRPSGIPDRFSGSSSGNTASLTITGAQAEDEADYYCNSRDSSGNPWAFGGGTKVTVLGQPKAAPSVTLFPPSSEELQANKATLVCLISDFYPGAVTVAWKADSSPVKAGVETTTPSKQSNNKYAASSYLSLTPEQWKSHRSYSCQVTHEGSTVEKTVAPTECS | > 100 nM | 61% | 101% | well tolerated | – | – | – | – | – | – |
| OMTX707: G7V antibody conjugated with the drug-linker TAM558 (cytolysin-linker maleimide caproyl vcPABA); DAR 3.79 (conjugate) heavy: EVQLVESGGGLVKPGGSLRLSCAASGFTFSSYSMNWVRQAPGKGLEWVANIKPDGSERHSVDSVKGRFTISRDNSKNSLYLQMNSLRAEDTAVYYCARPGAGRLDYWGQGTLVTVSS[omitted - human IgG1 constant region] light: SSELTQDPAVSVALGQTVRITCQGDSLRSYYASWYQQKPGQAPVLVVYGKNNRPSGIPDRFSGSSSGNTASLTITGAQAEDEADYYCNSRDSSGNPWAFGGGTKVTVLGQPKAAPSVTLFPPSSEELQANKATLVCLISDFYPGAVTVAWKADSSPVKAGVETTTPSKQSNNKYAASSYLSLTPEQWKSHRSYSCQVTHEGSTVEKTVAPTECS | > 100 nM | – | – | – | no anti-tumor efficacy | 2.72% | mild anti-tumor efficacy | 48.10% | 48.10% | well tolerated |
